Data taken from the RNAGym collection of RNA variant scans (doi:10.1093/nar/gkz1192).
Read counts are not given, so values of variants with three or more changes are uncertain.

B1: CPEB3 Ribozyme (parent)
chain: UAACAGGGGGCCACAGCAGAAGCGUUCACGUCGCAGCCCCUGUCAGAUUCUGGUGAAUCUGCGAAUUCUGCUGUAUAUCUC

Variants of: B1
Assay: self-cleavage, relative activity (ratio to wild type); higher = more cleavage; in vitro, sequencing
Summary of the method: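 Barcoded CPEB3 ribozyme mutants, produced by rounds of error-prone PCR, self-cleaved while being transcribed with T7 RNA polymerase for 5 hours at 37°C and during a subsequent 15 min DNase I step before EDTA was added. Sequencing of template-switched cDNA on Illumina gave cleaved and total reads, and DNA sequencing assigned barcodes to variants. Each variant's relative activity is its cleaved/total read fraction divided by the unmutated ribozyme's fraction, averaged across three batches. A variant needed a minimum of 5 reads.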

For UAACAGGGGGCCACAGCAGAAGCGUUCACGUCGCAGUCCCUGUCAGAUUCUUGUGAACCUGCGAAUUCGGCUGUAUAUCUC [C37U G52U U58C U69G], which self-cleavage is on record?
The self-cleavage was 0.14.

Which self-cleavage does the source give for UAACAGGGGGCCACAGCAGAAGCGUUCACGUCGCAGUCCCCGUCAGAUUCUGGUGGACCUGCGAAUUCUGCUGUAUAUCUC [C37U U41C A56G U58C] here?
The self-cleavage was 0.11.

With UAACAGGGGGCCACAGCAGAAGCGUUCACGUCGCAGUCCCCCUCAGAUUCUGGUGAAUCUGCGUAUUCUGCUGUAUAUCUC [C37U U41C G42C A64U] as the variant, how does the self-cleavage read?
Its self-cleavage is 0.19.

With UAACAGGGGGCCACAGCAGAAGCGUUCACGUCGCAGUCCCUGCCAGAUUCUGGUGUAUCUGCGGAUUCUGCUGUAUAUCCC [C37U U43C A56U A64G U80C] as the variant, how does the self-cleavage read?
The self-cleavage was 0.15.

With UAACAGGGGGCCACAGCAGAAGCGUUCACGUCGCAGUCCCUGCCAUAUUCUGGUGGAUCUGCGAGUUCUGCUGUAUAUCUC [C37U U43C G46U A56G A65G] as the variant, how does the self-cleavage read?
The self-cleavage was 0.13.

For UAACAGGGGGCCACAGCAGAAGCGUUCACGUCGCAGUCCCUGCCAGAAUCUGGUGAAUCUGCGAAUUCUGCUGUAUAUCUC [C37U U43C U48A], which self-cleavage is on record?
Its self-cleavage is 0.12.

With UAACAGGGGGCCACAGCAGAAGCGUUCACGUCGCAGUCCCUGCCAGAUUCUGGUGAAUCUGCGAAUUCUGCUGUAUACCUC [C37U U43C U78C] as the variant, how does the self-cleavage read?
The self-cleavage was 0.13.

For UAACAGGGGGCCACAGCAGAAGCGUUCACGUCGCAGUCCCUGUCAGACUCUGGUGAAUCAGCGAAUUCUGCUGUAUAUCUC [C37U U48C U60A], which self-cleavage is on record?
The self-cleavage was 0.18.

With UAACAGGGGGCCACAGCAGAAGCGUUCACGUCGCAGUCCCUGUCAGAUCCUGGUGAAUCUGCGAAUCCUGCUGUAUAUCUC [C37U U49C U67C] as the variant, how does the self-cleavage read?
The self-cleavage was 0.11.

For UAACAGGGGGCCACAGCAGAAGCGUUCACGUCGCAGUCCCUGUCAGAUUCCGGUGAAUCUGCGGAUUCUGCUGUAUAUCUC [C37U U51C A64G], which self-cleavage is on record?
Its self-cleavage is 0.53.

With UAACAGGGGGCCACAGCAGAAGCGUUCACGUCGCAGUCCCUGUCAGAUUCCGGUGAAUCUGCGAAUUCUGCUGUUUAUCAC [C37U U51C A75U U80A] as the variant, how does the self-cleavage read?
The self-cleavage was 1.

With UAACAGGGGGCCACAGCAGAAGCGUUCACGUCGCAGUCCCUGUCAGAUUCUGGAGAAUCUGCGUAUUCUGCUGUAUAUCUC [C37U U54A A64U] as the variant, how does the self-cleavage read?
The self-cleavage was 0.17.

For UAACAGGGGGCCACAGCAGAAGCGUUCACGUCGCAGUCCCUGUCAGAUUCUGGAGAAUCUGCGAAUUCUGCUGUAUAUCCC [C37U U54A U80C], which self-cleavage is on record?
The self-cleavage was 0.84.

Which self-cleavage does the source give for UAACAGGGGGCCACAGCAGAAGCGUUCACGUCGCAGUCCCUGUCAGAUUCUGGCGAAUCUGCGAAUACUGCUGUAUAUCUC [C37U U54C U67A] here?
Its self-cleavage is 0.18.

With UAACAGGGGGCCACAGCAGAAGCGUUCACGUCGCAGUCCCUGUCAGAUUCUGGUGAAUCUGCGAAUUCUGCAGUUUAUCUC [C37U U72A A75U] as the variant, how does the self-cleavage read?
Its self-cleavage is 0.55.

For UAACAGGGGGCCACAGCAGAAGCGUUCACGUCGCAGUCCCUGUCAGAUUCUGGUGAAUCUGCGAAUUCUGCAGUAUAUCCC [C37U U72A U80C], which self-cleavage is on record?
Its self-cleavage is 0.77.

Which self-cleavage does the source give for UAACAGGGGGCCACAGCAGAAGCGUUCACGUCGCAGCACCUGUCAGGUUCUGGUGAAUCUGCGAAUUCUGCUGUAUAUCCC [C38A A47G U80C] here?
Its self-cleavage is 0.05.

Which self-cleavage does the source give for UAACAGGGGGCCACAGCAGAAGCGUUCACGUCGCAGCACCUGUCAGAUUCUGGUGACUCUGCGGAUUCCGCUGUAUAUCUC [C38A A57C A64G U69C] here?
Its self-cleavage is 0.1.

For UAACAGGGGGCCACAGCAGAAGCGUUCACGUCGCAGCACCUGUCAGAUUCUGGUGAAUCUGCGGAUUGAGCUGUAUAUCUC [C38A A64G C68G U69A], which self-cleavage is on record?
The self-cleavage was 0.18.

For UAACAGGGGGCCACAGCAGAAGCGUUCACGUCGCAGCACCUGUUAGAUUCUGGUGAAUCUGCGAAUUUUGCUGUAUAUCUC [C38A C44U C68U], which self-cleavage is on record?
The self-cleavage was 0.08.

With UAACAGGGGGCCACAGCAGAAGCGUUCACGUCGCAGCACCUGUCAGAUUAUGGUGAAUCUGCGAAUCUUGCUGUAUAUCCC [C38A C50A U67C C68U U80C] as the variant, how does the self-cleavage read?
The self-cleavage was 0.18.

With UAACAGGGGGCCACAGCAGAAGCGUUCACGUCGCAGCACCUGUCAGAUUCUGGUGAAUGUGCGAAUUCAGCUGUGUAUCUC [C38A C59G U69A A75G] as the variant, how does the self-cleavage read?
The self-cleavage was 0.14.

For UAACAGGGGGCCACAGCAGAAGCGUUCACGUCGCAGCACCUGUCAGAUUCUGGUGAAUCUGGGAAUUCUGCUGUACAUCUA [C38A C62G U76C C81A], which self-cleavage is on record?
Its self-cleavage is 0.08.

For UAACAGGGGGCCACAGCAGAAGCGUUCACGUCGCAGCACCAGUCAGAUUCUGGUGAAUCUGCGAAUUCUGCUGUAUACCUC [C38A U41A U78C], which self-cleavage is on record?
The self-cleavage was 0.19.

With UAACAGGGGGCCACAGCAGAAGCGUUCACGUCGCAGCACCGGUCAGGUUCUGGCGAAUCUGCGAAUUCUGCUGUAUAUCCC [C38A U41G A47G U54C U80C] as the variant, how does the self-cleavage read?
The self-cleavage was 0.09.

For UAACAGGGGGCCACAGCAGAAGCGUUCACGUCGCAGCACCGGUCAGGUUCUGGUGAAUCUGCGAAUUCUGCUGUAUAUCCC [C38A U41G A47G U80C], which self-cleavage is on record?
The self-cleavage was 0.26.

For UAACAGGGGGCCACAGCAGAAGCGUUCACGUCGCAGCACCUGCCAGACUCUGGUGAAUCCGCGAAUUCUGCUGUAUAACUC [C38A U43C U48C U60C U78A], which self-cleavage is on record?
The self-cleavage was 0.08.

With UAACAGGGGGCCACAGCAGAAGCGUUCACGUCGCAGCACCUGUCAGAUCCUGGUGAAUCUGCGAAUUCUGCUGUAUAUCAC [C38A U49C U80A] as the variant, how does the self-cleavage read?
The self-cleavage was 0.13.

With UAACAGGGGGCCACAGCAGAAGCGUUCACGUCGCAGCACCUGUCAGAUUCGGGUGAAUCUGCGAAUUCUGCUGUCUAUCUC [C38A U51G A75C] as the variant, how does the self-cleavage read?
The self-cleavage was 0.41.

For UAACAGGGGGCCACAGCAGAAGCGUUCACGUCGCAGCACCUGUCAGAUUCUGGAGAAUCUGCGAAUUCUGCCGUAUAUCUC [C38A U54A U72C], which self-cleavage is on record?
Its self-cleavage is 0.28.

With UAACAGGGGGCCACAGCAGAAGCGUUCACGUCGCAGCACCUGUCAGAUUCUGGUGAAUCUGCGAAUUCCGCUGUAUAUCCC [C38A U69C U80C] as the variant, how does the self-cleavage read?
Its self-cleavage is 0.13.

Which self-cleavage does the source give for UAACAGGGGGCCACAGCAGAAGCGUUCACGUCGCAGCGCCUGUCAGAUCCUGGUGAAUCUGCAAAUUCUGCUCUAUAUCUC [C38G U49C G63A G73C] here?
The self-cleavage was 0.06.

Which self-cleavage does the source give for UAACAGGGGGCCACAGCAGAAGCGUUCACGUCGCAGCGCCUGUCAGAUUCUGGUGAAUCUGCGAAUCCUUCUGUAUAUCUC [C38G U67C G70U] here?
Its self-cleavage is 0.07.

For UAACAGGGGGCCACAGCAGAAGCGUUCACGUCGCAGCUCCUGUCGGAUUCUGGUGGAACUGCGAAUUCUGCUGUAUAUCUC [C38U A45G A56G U58A], which self-cleavage is on record?
The self-cleavage was 0.17.
